# Laboratory results: the supplement of paper PMC8728848
# The other results are listed elsewhere or left out.
# How the values were obtained:
# Assay in all cases: glycan array binding signal (z-score within array); higher = stronger binding
# Conditions in all cases: glycan notation: IUPAC condensed, linker removed
# Gal(a1-3)Gal(b1-4)GlcNAc = target: Gal(a1-3)Gal(b1-4)GlcNAc
# In short: (§1)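 The Consortium for Functional Glycomics database supplied 3228 glycan arrays, of which those lacking an available protein sequence were dropped. The binding signal, a within-array Z-score, was averaged across arrays of the same protein sequence and across linkers. Negative scores can be read as non-binding.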
# [1] = target: Gal(a1-3)Gal(b1-4)GlcNAc(b1-2)Man
# In short: as §1
# [2] = target: Gal(a1-3)Gal(b1-4)GlcNAc(b1-2)Man(a1-3)[Gal(a1-3)Gal(b1-4)GlcNAc(b1-2)Man(a1-6)]Man(b1-4)GlcNAc(b1-4)GlcNAc
# In short: as §1
# [3] = target: Gal(a1-3)Gal(b1-4)GlcNAc(b1-3)GalNAc
# In short: as §1
# [4] = target: Gal(a1-3)Gal(b1-4)GlcNAc(b1-6)GalNAc
# In short: as §1
# [5] = target: Gal(a1-3)Gal(b1-4)[Fuc(a1-3)]GlcNAc
# In short: as §1
# [6] = target: Gal(a1-3)Gal(b1-4)[Fuc(a1-3)]GlcNAc(b1-2)Man(a1-3)[Gal(a1-3)Gal(b1-4)[Fuc(a1-3)]GlcNAc(b1-2)Man(a1-6)]Man(b1-4)GlcNAc(b1-4)GlcNAc
# In short: as §1
# Gal(a1-3)GalNAc = target: Gal(a1-3)GalNAc
# In short: as §1
# [7] = target: Gal(a1-3)[Gal(a1-4)]Gal(b1-4)GlcNAc
# In short: as §1
# [8] = target: Gal(a1-4)Gal(b1-3)GlcNAc(b1-2)Man(a1-3)[Gal(a1-4)Gal(b1-3)GlcNAc(b1-2)Man(a1-6)]Man(b1-4)GlcNAc(b1-4)GlcNAc
# In short: as §1
# Gal(a1-4)Gal(b1-4)Glc = target: Gal(a1-4)Gal(b1-4)Glc
# In short: as §1
# Gal(a1-4)Gal(b1-4)GlcNAc = target: Gal(a1-4)Gal(b1-4)GlcNAc
# In short: as §1
# [9] = target: Gal(a1-4)Gal(b1-4)GlcNAc(b1-2)Man(a1-3)[Gal(a1-4)Gal(b1-4)GlcNAc(b1-2)Man(a1-6)]Man(b1-4)GlcNAc(b1-4)GlcNAc
# In short: as §1
# [10] = target: Gal(a1-4)Gal(b1-4)GlcNAc(b1-3)Gal(b1-4)Glc
# In short: as §1
# Gal(a1-4)GlcNAc = target: Gal(a1-4)GlcNAc
# In short: as §1
# Gal(a1-6)Glc = target: Gal(a1-6)Glc
# In short: as §1
# Gal(b1-2)Gal = target: Gal(b1-2)Gal
# In short: as §1
# Gal(b1-3)Gal = target: Gal(b1-3)Gal
# In short: as §1
# Gal(b1-3)Gal(b1-4)GlcNAc = target: Gal(b1-3)Gal(b1-4)GlcNAc
# In short: as §1
# Gal(b1-3)GalNAc = target: Gal(b1-3)GalNAc
# In short: as §1
# [11] = target: Gal(b1-3)GalNAc(a1-3)[Fuc(a1-2)]Gal(b1-4)Glc
# In short: as §1
# [12] = target: Gal(b1-3)GalNAc(a1-3)[Fuc(a1-2)]Gal(b1-4)GlcNAc
# In short: as §1
# Gal(b1-3)GalNAc(b1-3)Gal = target: Gal(b1-3)GalNAc(b1-3)Gal
# In short: as §1
# [13] = target: Gal(b1-3)GalNAc(b1-3)Gal(a1-4)Gal(b1-4)Glc
# In short: as §1
# [14] = target: Gal(b1-3)GalNAc(b1-4)Gal(b1-4)Glc
# In short: as §1
# [15] = target: Gal(b1-3)GalNAc(b1-4)[Neu5Ac(a2-3)]Gal(b1-4)Glc
# In short: as §1
# Gal(b1-3)GlcNAc = target: Gal(b1-3)GlcNAc
# In short: as §1
# [16] = target: Gal(b1-3)GlcNAc(a1-3)Gal(b1-4)GlcNAc
# In short: as §1
# [17] = target: Gal(b1-3)GlcNAc(a1-6)Gal(b1-4)GlcNAc
# In short: as §1
# Gal(b1-3)GlcNAc(b1-2)Man = target: Gal(b1-3)GlcNAc(b1-2)Man
# In short: as §1
# [18] = target: Gal(b1-3)GlcNAc(b1-2)Man(a1-3)[Gal(b1-3)GlcNAc(b1-2)Man(a1-6)]Man(b1-4)GlcNAc(b1-4)GlcNAc
# In short: as §1
# [19] = target: Gal(b1-3)GlcNAc(b1-2)Man(a1-3)[Gal(b1-3)GlcNAc(b1-2)Man(a1-6)]Man(b1-4)GlcNAc(b1-4)[Fuc(a1-6)]GlcNAc
# In short: as §1
# [20] = target: Gal(b1-3)GlcNAc(b1-2)Man(a1-3)[GlcNAc(b1-4)][Gal(b1-3)GlcNAc(b1-2)Man(a1-6)]Man(b1-4)GlcNAc(b1-4)GlcNAc
# In short: as §1
# [21] = target: Gal(b1-3)GlcNAc(b1-2)[Gal(b1-3)GlcNAc(b1-6)]Man(a1-6)[Gal(b1-3)GlcNAc(b1-2)Man(a1-3)]Man(b1-4)GlcNAc(b1-4)GlcNAc
# In short: as §1
# [22] = target: Gal(b1-3)GlcNAc(b1-3)Gal(b1-3)GlcNAc
# In short: as §1
# [23] = target: Gal(b1-3)GlcNAc(b1-3)Gal(b1-4)Glc
# In short: as §1
# [24] = target: Gal(b1-3)GlcNAc(b1-3)Gal(b1-4)GlcNAc
# In short: as §1
# [25] = target: Gal(b1-3)GlcNAc(b1-3)Gal(b1-4)GlcNAc(b1-2)Man(a1-3)[Gal(b1-3)GlcNAc(b1-3)Gal(b1-4)GlcNAc(b1-2)Man(a1-6)]Man(b1-4)GlcNAc(b1-4)GlcNAc
# In short: as §1
# [26] = target: Gal(b1-3)GlcNAc(b1-3)Gal(b1-4)GlcNAc(b1-2)[Gal(b1-3)GlcNAc(b1-3)Gal(b1-4)GlcNAc(b1-6)]Man(a1-6)[Gal(b1-3)GlcNAc(b1-3)Gal(b1-4)GlcNAc(b1-2)Man(a1-3)]Man(b1-4)GlcNAc(b1-4)[Fuc(a1-6)]GlcNAc
# In short: as §1
# [27] = target: Gal(b1-3)GlcNAc(b1-3)Gal(b1-4)GlcNAc(b1-3)Gal(b1-4)GlcNAc(b1-2)[Gal(b1-3)GlcNAc(b1-3)Gal(b1-4)GlcNAc(b1-3)Gal(b1-4)GlcNAc(b1-6)]Man(a1-6)[Gal(b1-3)GlcNAc(b1-3)Gal(b1-4)GlcNAc(b1-3)Gal(b1-4)GlcNAc(b1-2)Man(a1-3)]Man(b1-4)GlcNAc(b1-4)[Fuc(a1-6)]GlcNAc
# In short: as §1
# [28] = target: Gal(b1-3)GlcNAc(b1-3)Gal(b1-4)GlcNAc(b1-6)[Gal(b1-3)GlcNAc(b1-3)]Gal(b1-4)Glc
# In short: as §1
# [29] = target: Gal(b1-3)GlcNAc(b1-3)Gal(b1-4)[Fuc(a1-3)]GlcNAc
# In short: as §1
# [30] = target: Gal(b1-3)GlcNAc(b1-3)Gal(b1-4)[Fuc(a1-3)]GlcNAc(b1-6)[Gal(b1-3)GlcNAc(b1-3)]Gal(b1-4)Glc
# In short: as §1
# [31] = target: Gal(b1-3)GlcNAc(b1-3)GalNAc
# In short: as §1
# [32] = target: Gal(b1-3)GlcNAc(b1-6)Gal(b1-4)GlcNAc
# In short: as §1
binder,measurement,setting,value
"Apa (Mycobacterium tuberculosis), Rv1860 (protein) MHQVDPNLTRRKGRLAALAIAAMASASLVTVAVPATANADPEPAPPVPTTAASPPSTAAAPPAPATPVAPPPPAAANTPNAQPGDPNAAPPPADPNAPPPPVIAPNAPQPVRIDNPVGGFSFALPAGWVESDAAHFDYGSALLSKTTGDPPFPGQPPPVANDTRIVLGRLDQKLYASAEATDSKAAARLGSDMGEFYMPYPGTRINQETVSLDANGVSGSASYYEVKFSDPSKPNGQIWTGVIGSPAANAPDAGPPQRWFVVWLGTANNPVDKGAAKALAESIRPLVAPPPAPAPAPAEPAPAPAPAGEVAPTPTTPTPQRTLPA",glycan array binding signal (z-score),Gal(a1-3)Gal(b1-4)GlcNAc,-0.079
same,glycan array binding signal (z-score),[1],-0.089
same,glycan array binding signal (z-score),[2],0.299
same,glycan array binding signal (z-score),[3],-0.37
same,glycan array binding signal (z-score),[4],-0.2
same,glycan array binding signal (z-score),[5],-0.489
same,glycan array binding signal (z-score),[6],0.302
same,glycan array binding signal (z-score),Gal(a1-3)GalNAc,-0.131
same,glycan array binding signal (z-score),[7],-0.069
same,glycan array binding signal (z-score),[8],0.25
same,glycan array binding signal (z-score),Gal(a1-4)Gal(b1-4)Glc,-0.349
same,glycan array binding signal (z-score),Gal(a1-4)Gal(b1-4)GlcNAc,0.241
same,glycan array binding signal (z-score),[9],0.346
same,glycan array binding signal (z-score),[10],-0.125
same,glycan array binding signal (z-score),Gal(a1-4)GlcNAc,-0.298
same,glycan array binding signal (z-score),Gal(a1-6)Glc,0.103
same,glycan array binding signal (z-score),Gal(b1-2)Gal,-0.447
same,glycan array binding signal (z-score),Gal(b1-3)Gal,-0.071
same,glycan array binding signal (z-score),Gal(b1-3)Gal(b1-4)GlcNAc,-0.471
same,glycan array binding signal (z-score),Gal(b1-3)GalNAc,-0.031
same,glycan array binding signal (z-score),[11],-0.368
same,glycan array binding signal (z-score),[12],-0.01
same,glycan array binding signal (z-score),Gal(b1-3)GalNAc(b1-3)Gal,-0.381
same,glycan array binding signal (z-score),[13],-0.018
same,glycan array binding signal (z-score),[14],-0.254
same,glycan array binding signal (z-score),[15],-0.504
same,glycan array binding signal (z-score),Gal(b1-3)GlcNAc,-0.057
same,glycan array binding signal (z-score),[16],0.158
same,glycan array binding signal (z-score),[17],0.788
same,glycan array binding signal (z-score),Gal(b1-3)GlcNAc(b1-2)Man,2.77
same,glycan array binding signal (z-score),[18],-0.376
same,glycan array binding signal (z-score),[19],-0.23
same,glycan array binding signal (z-score),[20],0.089
same,glycan array binding signal (z-score),[21],0.06
same,glycan array binding signal (z-score),[22],-0.31
same,glycan array binding signal (z-score),[23],-0.5
same,glycan array binding signal (z-score),[24],-0.186
same,glycan array binding signal (z-score),[25],-0.122
same,glycan array binding signal (z-score),[26],0.082
same,glycan array binding signal (z-score),[27],0.279
same,glycan array binding signal (z-score),[28],-0.185
same,glycan array binding signal (z-score),[29],0.117
same,glycan array binding signal (z-score),[30],-0.365
same,glycan array binding signal (z-score),[31],-0.447
same,glycan array binding signal (z-score),[32],-0.304
